Measurements taken from the RNAGym collection of RNA variant scans (doi:10.7554/elife.90254).
The source gives no read counts; variants with many changes may rest on few reads.

B1: LINE1-mini (parent)
chain: GGCAGAGCUCAACACAGCGUGGCAAAGUGGCUGUGGCUAGACUGCC

Variants of: B1
Test: self-cleavage, relative activity (ratio to wild type); higher = more cleavage; in vitro, sequencing; the parent is a self-cleaving ribozyme
In the case of G27C G35A G36C, the self-cleavage is reported as 1.08.
Variant A26U U34G A39C has a self-cleavage of 0.
For A26U G27A G30C U38A, the self-cleavage was 2.39.
Variant G27C U28A U43G G44A has a self-cleavage of 0.
A25U U32C C46A showed a self-cleavage of 0.03.
For G27U G36U U38A, the self-cleavage was 0.02.
In the case of G27A G33C C45G C46U, the self-cleavage is reported as 0.04.
G27U G33U U34C U43C showed a self-cleavage of 0.01.
G27U G35C G40A gave a self-cleavage of 0.14.
A26C G33C G35U showed a self-cleavage of 0.02.
In the case of A26C G29C U43C, the self-cleavage is reported as 0.01.
For G27C G33A G35C C42A, the self-cleavage was 0.01.
G27C G30A G44A C46A showed a self-cleavage of 0.05.
For A26U G36A C46U, the self-cleavage was 0.15.
In the case of A26C G27U C31U G35C, the self-cleavage is reported as 0.03.
In the case of A26G G27U U34C G40C, the self-cleavage is reported as 0.01.
Work on A25U U28C A41U C45U yielded a self-cleavage of 0.47.
For G27U G29C G36C G44U, the self-cleavage was 0.06.
Work on U28A G30U G33A yielded a self-cleavage of 0.05.
With A26G G36A A39U the self-cleavage was 0.35.
Variant A26G A41G G44U has a self-cleavage of 0.07.
In the case of A26G G35A U43A, the self-cleavage is reported as 0.06.
For G27A U28C A39C, the self-cleavage was 0.04.
For A26U U34G U38A C42U C46A, the self-cleavage was 0.01.
With A26G C37U C45A the self-cleavage was 0.03.
U28A G30A G35U U38A showed a self-cleavage of 0.01.
For U28A C37A U38C, the self-cleavage was 0.01.
With A26G G30U U32G A39C the self-cleavage was 0.03.
Variant A25U G27U G40A G44C has a self-cleavage of 0.03.
G27C G33U G40A C46A showed a self-cleavage of 0.05.
Variant A26U C37A A41U has a self-cleavage of 0.29.
Variant G27A G40A C46A has a self-cleavage of 0.03.
A26U U32A C42U showed a self-cleavage of 0.14.
For A26U G33U U38G U43A, the self-cleavage was 0.22.
A25U G29U C37A showed a self-cleavage of 0.09.
G27U G33C G40A C45U showed a self-cleavage of 0.
A26U G29A G30U C45U C46U showed a self-cleavage of 0.19.
For U28A C31G C45U, the self-cleavage was 0.2.
A25U C31G G35C G40A gave a self-cleavage of 0.05.
With A26U G29C C42A the self-cleavage was 0.06.
Work on A25U G27U C42U yielded a self-cleavage of 0.19.
For A25U C37U U38A A39U, the self-cleavage was 0.07.
With A26C G36A C37G the self-cleavage was 0.
G27C G36C C37U A39U showed a self-cleavage of 0.01.
For A26C U28G U34G, the self-cleavage was 0.07.
For A25U G30A A39G, the self-cleavage was 0.09.
With A26C U28C A41U G44U the self-cleavage was 0.
G27C C31A A41U C46U showed a self-cleavage of 0.03.
Work on G27C G29C U38C yielded a self-cleavage of 0.15.
G27A G35U A41U gave a self-cleavage of 0.04.
G27U G33A A41G showed a self-cleavage of 0.12.
A26G G29C A41G G44C gave a self-cleavage of 0.
With G27A G29C C37A C45A the self-cleavage was 0.
With A26C U34A A41C the self-cleavage was 0.63.
Variant G27C C31U A41C C46U has a self-cleavage of 0.03.
Work on A25U G40U C45U yielded a self-cleavage of 0.04.
Variant G27C C42U G44C has a self-cleavage of 0.03.
With A26C U34C G35U C42G the self-cleavage was 0.03.
In the case of G27A G30C G35U C45G, the self-cleavage is reported as 0.18.
Variant A26C G29U U32A has a self-cleavage of 0.06.
Variant A26U C31G C42U has a self-cleavage of 0.02.
A26U C31G C42A showed a self-cleavage of 0.06.
A26G G40A G44C C46G showed a self-cleavage of 0.03.
For A26G U32A C46U, the self-cleavage was 0.02.
Work on A26U G40U A41C yielded a self-cleavage of 0.05.
With A26C C31G C45U the self-cleavage was 0.02.
In the case of G27U G29C A41G, the self-cleavage is reported as 0.23.
With G27U C31U G35U G40A the self-cleavage was 0.01.
With A25U G40U G44U the self-cleavage was 0.04.
For G27U G30U U34G, the self-cleavage was 0.18.
U28A G30A G36U gave a self-cleavage of 0.09.
G27A G33C G40C showed a self-cleavage of 0.05.
Work on A26C G40C C45A yielded a self-cleavage of 0.03.
In the case of G27U A39U G40A, the self-cleavage is reported as 0.05.
With G27C G36U G44U the self-cleavage was 0.09.
A26U C31G G33C showed a self-cleavage of 0.05.
For G27C U34G C46G, the self-cleavage was 0.21.
With G27A U32C C46U the self-cleavage was 0.12.
Work on A25U G27C G35C C37G C42A yielded a self-cleavage of 0.04.
With A26C C31U G35C C37U the self-cleavage was 0.04.
A26G U38A A39C gave a self-cleavage of 0.59.
A26U G27U C37U showed a self-cleavage of 0.05.
With A26G U34G C45U the self-cleavage was 0.03.
